± gives the standard deviation of the averaged measurements. Over roughly 33,000 sequences, “E-score (dimensionless, -0.5 to 0.5)” has its median near -0.046; the highest 2% begin near 0.36. The list shows a part of the results.
tested on: T1, SpTbr T-box DNA-binding domain (GST fusion); assay: PBM E-score of 8-mer (E-score (dimensionless, -0.5 to 0.5)); Tbr is Tbrain of the sea star Patiria miniata (Pm) or the sea urchin Strongylocentrotus purpuratus (Sp); higher = stronger binding preference; most listed sequences are background and not binding sites; details: the construct has about 5 more residues each side
T1 sequence: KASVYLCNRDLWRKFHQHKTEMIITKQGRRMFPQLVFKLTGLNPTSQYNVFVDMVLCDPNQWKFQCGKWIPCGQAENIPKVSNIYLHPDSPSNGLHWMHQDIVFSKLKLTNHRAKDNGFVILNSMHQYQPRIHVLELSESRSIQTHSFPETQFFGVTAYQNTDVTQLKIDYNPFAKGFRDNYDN
Procedure: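 Universal protein-binding microarray (Agilent AMADID 016060, 60-bp probes with a 35-bp variable region) incubated with 200 nM GST-fused Strongylocentrotus purpuratus Tbr T-box DNA-binding domain (residues 362-554) in PBS pH 7.5. Scored for every ungapped 8-mer (given with its reverse complement) as E-score (range -0.5 to 0.5; >0.45 counts as bound) and Z-score of median probe intensity. Two replicate arrays (datasets 1 and 2).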
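Also: protein at 200 nM in PBS on universal double-stranded arrays.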

Sequence	PBM E-score of 8-mer
ATCCACTA	-0.217 ± 0.065
AACTCAGA	-0.0806 ± 0.0027
AAAATGCA	-0.0594 ± 0.089
CCTTTCCG	-0.104 ± 0.011
AACGTGAT	0.0397 ± 0.054
CCGATTGA	-0.154 ± 0.057
CCATGGCG	-0.204 ± 0.015
AAATTTTA	-0.00539 ± 0.17
GCGCCACA	0.223 ± 0.014
AGACGCCC	-0.148 ± 0.025
CCAAAATC	-0.138 ± 0.03
ATGTGCCA	0.374 ± 0.01
CCTATCCC	-0.00292 ± 0.082
AATTACAG	-0.124 ± 0.024
CTTAAAGC	-0.259 ± 0.041
CCACTGGA	-0.234 ± 0.0092
ATCCTGAG	-0.171 ± 0.027
AGATACGG	-0.0426 ± 0.015
TAAAGGGA	-0.0975 ± 0.056
AAGTCCGA	-0.125 ± 0.033
GATATAGC	0.118 ± 0.023
CAATCGAA	-0.266 ± 0.099
CAAGCCCA	-0.181 ± 0.039
GTTTCTCA	0.186 ± 0.039
TAGAGGCA	-0.173 ± 0.011

Sequence	PBM E-score of 8-mer
CACCATCA	0.246 ± 0.0075
AAGCTGGA	-0.0414 ± 0.026
AACTGGTG	0.188 ± 0.02
ATCCAATG	-0.108 ± 0.019
CTCATGGA	-0.162 ± 0.0046
GGGATGTA	-0.0945 ± 0.017
AAGAGACC	-0.221 ± 0.038
GTATTGAC	-0.0627 ± 0.015
ACGACCGA	0.00979 ± 0.0015
GGGGAAAC	-0.22 ± 0.053
GACACTCC	0.316 ± 0.0096
CCAGGAGC	-0.129 ± 0.014
AAGAGCCA	-0.0986 ± 0.0073
GACACATC	0.363 ± 0.028
CCTTTTAA	0.0516 ± 0.015
CTGCGATA	0.0968 ± 0.04
CAAGCCGC	0.048 ± 0.039
GCTTTGTA	-0.151 ± 0.11
ATTGCATG	-0.233 ± 0.0087
CCCTGCCC	-0.128 ± 0.03
AGTAAATG	-0.11 ± 0.024
AACGATCC	-0.0179 ± 0.014
ACTTTGAG	0.0979 ± 0.027
ACGGTACA	-0.124 ± 0.018
AATGGTCG	-0.231 ± 0.15

Sequence	PBM E-score of 8-mer
AAGGGGGT	0.0599 ± 0.024
CAGTCCTC	-0.0834 ± 0.035
ATCCCGTC	-0.166 ± 0.0095
TCATGAGA	-0.163 ± 0.00029
CAAAGGAG	-0.279 ± 0.053
CATGACGA	-0.131 ± 0.022
GACGGCCA	-0.0774 ± 0.042
ATAAAGAG	-0.0829 ± 0.068
AAACGTGT	0.368 ± 0.018
CACTGATG	0.073 ± 0.046
GCGCCGTA	0.111 ± 0.11
ACTTATAA	-0.0689 ± 0.0088
TCTGAGAA	-0.238 ± 0.12
ATAAGTCA	-0.102 ± 0.017
CAAGCCCG	-0.195 ± 0.02
AGTAGCAG	-0.11 ± 0.1
ATCGCGAG	0.255 ± 0.0054
GAAGTTAC	-0.0673 ± 0.012
GATTGTAC	-0.0105 ± 0.043
CCAATACA	-0.11 ± 0.044
CACCATAA	0.0276 ± 0.045
ATCATTCG	-0.0417 ± 0.039
TACCAGCA	-0.0344 ± 0.084
GGGAGCAC	-0.139 ± 0.0078
AGGTGTGG	0.486 ± 0.0081

Sequence	PBM E-score of 8-mer
ACCTGTGA	0.3985 ± 0.0028
GTCTAGGA	-0.253 ± 0.011
GTATTTTA	-0.216 ± 0.071
AGATGGCG	0.027 ± 0.02
AGAGGCCA	0.0203 ± 0.091
GACTCCTC	0.0409 ± 0.052
AGTGCGAG	0.408 ± 0.022
TCGTCTAA	-0.0565 ± 0.057
CCGGGATC	-0.0846 ± 0.051
AGCCCGAT	-0.187 ± 0.0064
TGTCCCAA	-0.196 ± 0.019
ATCGTGGG	-0.0291 ± 0.046
ATAGTCTG	-0.0622 ± 0.038
CGTATCTC	-0.174 ± 0.0059
AGCGGTAA	-0.157 ± 0.0096
ATAGGCAC	-0.0913 ± 0.025
AGTTAGCA	0.284 ± 0.045
ACTATACG	-0.14 ± 0.043
ACCAGAGG	-0.0184 ± 0.029
ACAATAGG	-0.184 ± 0.045
AATAAAGA	-0.229 ± 0.056
AATGCATA	-0.221 ± 0.053
CACAGCCC	-0.114 ± 0.0023
GTGAAGGA	0.159 ± 0.075
CAAACCGA	-0.0123 ± 0.0069

Sequence	PBM E-score of 8-mer
ATGAACAC	-0.0339 ± 0.036
GCAAAGAA	-0.148 ± 0.0053
AAAAATTT	-0.309 ± 0.065
ACGAAAAT	-0.0695 ± 0.0046
GCTTCGCA	0.358 ± 0.017
AACAGGGG	-0.15 ± 0.039
AGGGCAAG	-0.277 ± 0.015
ATACGATG	-0.0862 ± 0.062
GAGCGAGC	-0.0313 ± 0.043
ACGTATGG	-0.215 ± 0.041
ACTTCAAG	-0.106 ± 0.081
ACTGTCTA	-0.0226 ± 0.061
ACTCTCAG	0.0254 ± 0.038
ACCCTGCT	-0.0729 ± 0.034
CGTCGACA	0.251 ± 0.031
GACAAGCC	0.1546 ± 0.00077
CCGGAAAC	-0.0822 ± 0.012
GGTCAGAA	-0.143 ± 0.051
GGAATTAA	-0.262 ± 0.058
CATACAAG	-0.193 ± 0.069
CCATGAGC	-0.0466 ± 0.013
CTCCGAAC	-0.0378 ± 0.058
ATGTGTTG	0.381 ± 0.014
AGGCTTGG	-0.225 ± 0.031
AACCCGCA	-0.0571 ± 0.0062

Sequence	PBM E-score of 8-mer
GAGTCGAC	0.107 ± 0.061
AGAAAGTC	-0.197 ± 0.0026
ATAAATCG	-0.0686 ± 0.065
ACATAGTC	-0.22 ± 0.038
ACCTGTGC	0.151 ± 0.018
GGTTGCTA	-0.000465 ± 0.025
CGAGTGAG	0.198 ± 0.029
GTCTTCGA	-0.205 ± 0.057
TCTCCAGA	-0.0714 ± 0.033
AAGAGTGA	0.219 ± 0.031
AGAACACT	0.0626 ± 0.08
GCGTCATA	0.162 ± 0.073
CTACCAAA	-0.0631 ± 0.0097
GACTGGGA	-0.078 ± 0.025
ATAGCGAG	0.181 ± 0.045
GACAGGGC	-0.2295 ± 0.00042
CTCCCAAC	-0.0533 ± 0.028
ACTCAGCA	-0.089 ± 0.02
CTCGTCGC	0.13 ± 0.024
AGGTCAAA	-0.245 ± 0.0091
GTCGGATA	-0.201 ± 0.019
ACTATATC	-0.0434 ± 0.083
CATAGCTA	-0.353 ± 0.012
ATGGAGAG	-0.214 ± 0.029
CGAGGCCA	-0.00878 ± 0.048

Sequence	PBM E-score of 8-mer
AGGCGACG	0.301 ± 0.066
GGGGACCC	-0.0329 ± 0.083
AATCTCCT	-0.0342 ± 0.087
CCCGTGAC	0.134 ± 0.0048
TCAGTCAA	-0.2 ± 0.012
GATTGCGC	0.211 ± 0.032
CAGGGCGC	0.154 ± 0.032
CGCGGAAC	-0.0666 ± 0.02
GGCGACAA	0.3676 ± 0.0007
ACAGCCAA	0.00932 ± 0.037
ACAAGGGC	-0.0968 ± 0.043
AGTGTAAG	0.26 ± 0.072
CCCTAAGG	-0.257 ± 0.032
AGCGGAGA	-0.000225 ± 0.0072
ATTTTGGC	-0.222 ± 0.022
ACTTTAAC	0.0899 ± 0.06
ACTGGTTA	-0.0491 ± 0.0029
ACAGGCCA	0.0135 ± 0.02
ATATCCCA	0.0562 ± 0.021
CAGTTGTA	-0.0476 ± 0.062
CGTCAATC	0.16 ± 0.018
AGAAGTAG	-0.229 ± 0.025
